PubChem BioAssay AID1345082 (National Center for Advancing Translational Sciences (NCATS), 2018)
Out of some 94,000 compounds screened, about 4,000 (4.3%) were called active. Inconclusive results, whose numbers are uncertain, are shown with a selection of clear calls. Calls follow the shape of the dose curve; as a rule, active = well fitted inhibition curve with a large enough effect; inconclusive = small, poorly fitted or top-dose-only effect; inactive = no such curve, though single readings can be large or run the other way. Potencies of inconclusive entries are doubtful fits and often do not repeat.
% is scaled to controls: 0 for no effect and ±100 for the full control effect; potency is read from the fitted curve at half-maximal effect; tags tell the direction and shape of the fitted curve.

Assay: Cytotoxic Profiling in NIH 3T3 Cell Line of Diverse Libraries Using Quantitative High-Throughput Screening; also: nearly all actives have a fitted effect of over 55% in size
Conditions: NIH 3T3 viability, CellTiter-Glo ATP luminescence, 48-72 h; activity change, negative = cytotoxicity: at 96.7 µM (top of the series) unless noted; series mostly up to 96.7 µM
Procedure, shortened: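 Luminescent ATP readout (CellTiter-Glo, 10 min RT) after 48 or 72 hr compound exposure of NIH 3T3 cells seeded at 400 cells/well in 1536-well format; quantitative HTS.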
With `CN(CC1CCOCC1)S(=O)(=O)c1ccc2c(c1)CCCC2` the Potency was inconclusive: 39.8 µM [inhibitor, partial curve, poor fit].
In the case of `CC(C)CCN1C[C@@H]2[C@H](C1)N(Cc1ccccc1F)C(=O)C(C)(C)[S+]2(=O)[O-]`, the Potency is reported as inconclusive: 70.8 µM [inhibitor, partial curve, poor fit].
In the case of `CC(=O)N1CCN(C(=O)c2nc3sccn3c2-c2cccc(C#N)c2)CC1`, the “outcome” value is reported as “inactive”.
For `CN1CC(=O)N(C2CCC2)Cc2c1ncnc2N1CCCCC1`, the “activity change, negative = cytotoxicity” value was inactive: -13.3%.
In the case of `O=C(Nc1ccc([C@@H](O)[C@H]2COCC(=O)N2Cc2ccc(C(F)(F)F)cc2)cc1)C1CCCCC1`, the Potency is reported as inconclusive: 50.1 µM [inhibitor, partial curve, poor fit].
In the case of `COc1cc(CNC(=O)c2cccc3c2CCN3C(=O)C2CC2)cc(OC)c1`, the “activity change, negative = cytotoxicity” value is reported as inactive: -16.8%.
In the case of `Fc1ccc(-c2ccc3ncc(Nc4ccc5c(c4)OCO5)n3n2)cc1`, the Potency is reported as inconclusive: 63.1 µM [inhibitor, partial curve, poor fit].
In the case of `COCC(=O)NC1CCC12CCN(C(=O)Nc1ccccc1)CC2` (stereo not drawn), the “activity change, negative = cytotoxicity” value is reported as inactive: -13.9%.
For `Cn1ncc2c(C(=O)NCCc3ccc(Cl)cc3)cc(-c3cccnc3)nc21`, the Potency was inconclusive: 20 µM [inhibitor, full curve].
In the case of `COC(=O)c1ccc(NC(=O)CCn2ccn3nc4c(c3c2=O)CCCC4)cc1`, the “activity change, negative = cytotoxicity” value is reported as inactive: -1.17%.
For `CCOc1ccccc1CNC(=O)c1noc(-c2ccc3c(c2)OCO3)n1`, the Potency was inconclusive: 44.7 µM [inhibitor, partial curve].
In the case of `O=C(CN1CCCCCC1)N1CC(Oc2ccc(-c3noc(-c4ccccc4)n3)cc2)C1`, the Potency is reported as inconclusive: 50.1 µM [inhibitor, partial curve, poor fit].
For `CCN(Cc1ccccc1)C(=O)CCC1CCN(S(=O)(=O)c2ccccc2)CC1`, the Potency was active: 28.2 µM.
With `COc1ccc(CNC(=O)C2CCN(c3cc(C(F)(F)F)nc(C)n3)CC2)c(OC)c1` the Potency was inconclusive: 79.4 µM [inhibitor, partial curve, poor fit].
With `COc1ccc(-n2nc(C3CCN([S+](=O)([O-])c4ccc(C)cc4)CC3)[nH]c2=O)cc1` the “activity change, negative = cytotoxicity” value was inactive: 1.03%.
With `O=C(c1nc(-c2ccc(F)cc2)c2cnccn12)N1CCCC1` the “activity change, negative = cytotoxicity” value was inactive: -11.8% [at 138 µM].
With `C[C@@H]1CN(C2CCN(C(=O)c3cc[nH]c3)CC2)C[C@H](C)O1` the “outcome” value was “inactive”.
With `C[C@]1(CO)[C@H]2Cc3sc(NC(=O)c4ccc(F)cc4)nc3[C@@H](CC(=O)NCc3cccnc3)[C@]2(C)CC[C@H]1O` the “activity change, negative = cytotoxicity” value was inactive: -9.04%.
With `O=C(COc1ccccc1)N1CCCC(c2noc(COc3ccccc3F)n2)C1` (stereo not drawn) the Potency was inconclusive: 50.1 µM [inhibitor, partial curve, poor fit].
For `O=C(O)[C@H]1C[C@]2(CCCCNC2=O)N(C(=O)CCc2ccccc2)[C@H]1c1ccco1`, the Potency was inconclusive: 50.1 µM [inhibitor, partial curve, poor fit].
In the case of `COc1ccc(OC)c(-c2cc(-c3ccccc3)nc3c(C)noc23)c1`, the Potency is reported as inconclusive: 28.2 µM [inhibitor, full curve].
For `O=C(NC1CCCN(c2cc(-c3ccc(F)cc3)[nH]n2)C1)c1ccc(Br)o1` (stereo not drawn), the Potency was inconclusive: 50.1 µM [inhibitor, partial curve, poor fit].
In the case of `COc1ccc(CNC(=O)CC[C@@H]2CNC(=O)[C@@H]3C[C@H](NCc4ccccc4)CN23)cc1`, the “outcome” value is reported as “inactive”.
With `CCOC(=O)[C@@H]1[C@@H](O)C(=O)NC12CCN(C(=O)c1ccc(Cl)cc1)CC2` the Potency was inconclusive: 56.2 µM [inhibitor, partial curve, poor fit].
With `COCC(=O)N1CCCN(CCc2ccccc2)c2ccccc21` the “activity change, negative = cytotoxicity” value was inactive: -29.1%.
In the case of `O=C(NCc1ccccc1F)c1cn2cc(-c3cccc(C(F)(F)F)c3)sc2n1`, the Potency is reported as inconclusive: 44.7 µM [inhibitor, partial curve, poor fit].
In the case of `CN(Cc1ccncc1)Cc1cccn1C`, the Potency is reported as inconclusive: 89.1 µM [inhibitor, partial curve, poor fit].
For `CCOc1ccc(CC(=O)N2CCC[C@H]2c2nc(-c3ccc(C)cc3)no2)cc1`, the Potency was inconclusive: 70.8 µM [inhibitor, partial curve, poor fit].
In the case of `O=C(NCCOc1ccccc1)c1nc2c(o1)CCN(Cc1c(F)cccc1F)CC2`, the Potency is reported as inconclusive: 100 µM [inhibitor, partial curve, poor fit].
For `NC(=O)COc1ccc(C(=O)N[C@@H]2CN(Cc3ccccn3)CCC[C@H]2O)cc1`, the Potency was inconclusive: 56.2 µM [inhibitor, partial curve, poor fit].
With `CCc1ccc(N2CC(c3noc(-c4cc(OC)c(OC)c(OC)c4)n3)CC2=O)cc1` (stereo not drawn) the Potency was inconclusive: 50.1 µM [inhibitor, partial curve, poor fit].
With `OCC1CN(c2ccncn2)CC12CCN(C1CCSCC1)CC2` (stereo not drawn) the Potency was inconclusive: 79.4 µM [inhibitor, partial curve, poor fit].
With `COc1ccc(-c2nc3c(c(=O)[nH]2)CCN(C(=O)Cc2c[nH]c4ccccc24)C3)cc1` the Potency was inconclusive: 50.1 µM [inhibitor, single point].
In the case of `Cc1noc(C)c1-c1cc(-c2ccc(CN(C)C)cc2)cn2cncc12`, the Potency is reported as active: 28.2 µM.
For `Cc1cc2ncc(C(=O)NC(C)c3ccc(F)cc3)cn2n1` (stereo not drawn), the Potency was inconclusive: 79.4 µM [inhibitor, partial curve, poor fit].
For `CNC(=O)c1cc(C2CC2)nc2onc(C3CCCN(C(=O)c4ccccc4OC)C3)c12` (stereo not drawn), the Potency was inconclusive: 56.2 µM [inhibitor, partial curve, poor fit].
For `Cc1cc(C)n(Cc2ccc(C(=O)NCC3Cn4cccc4C(=O)N3C)o2)n1` (stereo not drawn), the “activity change, negative = cytotoxicity” value was inactive: -19.5%.
With `Cc1cc(Cn2cc3c4c(cccc42)[C@H](CC(C)C)N[C@H](C(=O)NC2CCC2)C3)no1` the Potency was inconclusive: 89.1 µM [inhibitor, partial curve, poor fit].
With `COc1cccc(CN2C(=O)OC3(CCN(Cc4ccccn4)CC3)C2(C)c2cccnc2)c1` (stereo not drawn) the Potency was inconclusive: 31.6 µM [inhibitor, partial curve].
For `Cc1noc(C)c1-c1cc(-c2cccc(O)c2)cn2cncc12`, the Potency was active: 25.1 µM.
For `CCN1c2cc(C(=O)NCc3cccc(C(F)(F)F)c3)ccc2C(=O)N2CCCCCC21` (stereo not drawn), the Potency was inconclusive: 39.8 µM [inhibitor, partial curve, poor fit].
For `Cn1c(C(=O)N2CCc3c(n(CCOc4ccccc4)n(-c4ccccc4)c3=O)C2)cc2ccccc21`, the Potency was inconclusive: 5.01 µM [inhibitor, full curve, poor fit].
With `COc1ccc(C(=O)NC2CCN(c3ccc4nnc(-c5ccccc5)n4n3)CC2)cc1` the Potency was inconclusive: 70.8 µM [inhibitor, single point].
With `Cc1cc(C(=O)N[C@@H]2CCC[C@@H](C(=O)N(C)Cc3cccnc3)CC(=O)N(C)C2)c(C(F)(F)F)o1` the “activity change, negative = cytotoxicity” value was inactive: 0.0938%.
In the case of `O=C(CCC1CCN(S(=O)(=O)c2ccccc2)CC1)N1CCc2ccccc2C1`, the Potency is reported as inconclusive: 44.7 µM [inhibitor, partial curve, poor fit].
For `Cc1ccc(S(=O)(=O)N2CCCC(Cn3c(C)nc4cccnc43)C2)cc1Cl` (stereo not drawn), the Potency was inconclusive: 28.2 µM [inhibitor, full curve].
With `COc1cccc(-c2ccc(C(=O)N3CCC(NC(=O)Nc4ccc(Cl)cc4)CC3)cc2)c1` the Potency was active: 28.2 µM.
For `CC(=O)N1CCC(N2CC[C@H](c3nc4ncccc4[nH]3)C2)CC1`, the “activity change, negative = cytotoxicity” value was inactive: 2.91% [at 174 µM].
In the case of `O=C(NCc1ccccc1)C1CCC(=O)N1C1CCN(C(=O)c2ccc(Cl)cc2)CC1` (stereo not drawn), the “activity change, negative = cytotoxicity” value is reported as inactive: -11.1%.
For `COc1ccccc1-c1nc(C(=O)NCc2ccc(F)cc2)n2ccncc12`, the Potency was inconclusive: 44.7 µM [inhibitor, partial curve, poor fit].
With `COCc1cn2c(=O)n(C)cc(-c3ccc(OC)nc3)c2n1` the Potency was inconclusive: 100 µM [inhibitor, single point].
With `COc1ccc(C(=O)N2C[C@@H](Oc3cccnc3)C[C@H]2C(=O)NC2CC2)c(OC)n1` the “outcome” value was “inactive”.
In the case of `CCCN(CC1CCOC1)S(=O)(=O)c1ccc2c(c1)CCC2` (stereo not drawn), the Potency is reported as inconclusive: 44.7 µM [inhibitor, partial curve, poor fit].
In the case of `COc1ccc(-c2cnc3n2CC(C(=O)NCC2CC2)CC3)cc1` (stereo not drawn), the Potency is reported as inconclusive: 35.5 µM [inhibitor, partial curve, poor fit].
With `O=[S+]1([O-])N(Cc2ccccc2)C[C@H](O)[C@]12CCN(Cc1ccc(OC(F)F)cc1)C2` the Potency was inconclusive: 39.8 µM [inhibitor, partial curve, poor fit].
For `Cn1nc(C2CCCC2)cc1NC(=O)Cc1ccccc1`, the Potency was inconclusive: 100 µM [inhibitor, partial curve, poor fit].
In the case of `COc1ccc(S(=O)(=O)NC[C@@H]2C=C(C)[C@H](CC(=O)N3CCN(c4ccccn4)CC3)C[C@H]2C(C)C)cc1`, the Potency is reported as active: 8.91 µM.
For `CN1CC(=O)N(C2CCCNCC2)Cc2c(NCCc3ccccn3)ncnc21` (stereo not drawn), the “activity change, negative = cytotoxicity” value was inactive: -17%.
In the case of `COCCNc1ccc2nnc(-c3ccc(C)cn3)n2n1`, the Potency is reported as active: 112 µM.
With `CCCN1CCN(C(=O)C2(c3ccc(NC(=O)C(C)C)cc3)CCCCC2)CC1` the “activity change, negative = cytotoxicity” value was inactive: 3.06%.
With `Cc1ccccc1S(=O)(=O)N1CCN(C2CCN(CCc3ccccc3)C2=O)CC1` (stereo not drawn) the Potency was inconclusive: 44.7 µM [inhibitor, partial curve, poor fit].
For `Cc1ccc(-c2cc(N3CCCN(C(=O)c4ccc(N(C)C)cc4)CC3)n[nH]2)cc1C`, the Potency was inconclusive: 50.1 µM [inhibitor, partial curve, poor fit].
In the case of `O=C(CCC1CCN(C(=O)c2ccoc2)CC1)N1CCC(Cc2ccccc2)CC1`, the Potency is reported as inconclusive: 39.8 µM [inhibitor, partial curve].
